Reference: patent publication US6841566B2, “Viral polymerase inhibitors” (Boehringer Ingelheim, Ltd., priority 2001, dated 2005)

Target: hepatitis C virus RNA dependant polymerase (NS5B) (Hepatitis C virus genotype 1b, UniProt P26663)
Assay: Inhibition of NS5B RNA dependent RNA polymerase activity (SPA, oligo-U/polyA)
Protocol: The compounds of the invention were tested for inhibitory activity against the hepatitis C virus RNA dependant polymerase (NS5B), according to the following assay:
The substrates are: • a 12 nucleotide RNA oligo-uridylate (or oligo-uridine-monophosphate) (oligo-U) primer modified with biotin at the free 5′C position; • a complementary poly-adenylate (or adenosine monophosphate) (polyA) template of heterogeneous length (1000-10000 nucleotides); and UTP-[5,6 ^3H].
Polymerase activity is measured as the incorporation of UMP-[5,6 ^3H] into the chain elongated from the oligo-U primer. The ^3H-labelled reaction product is captured by SPA-beads coated with streptavidin and quantified on the TopCount.
The enzyme can be stored at −20° C. in storage buffer (see below).
The biotinylated oligo-U12 primer, the Poly(A) template, and the UTP-[5,6 ^3H] were dissolved in water. The solutions can be stored at −80° C.
Just prior to assay, test compounds of the invention were dissolved in assay buffer containing 15% DMSO.
Just prior to assay, the substrates were mixed in assay buffer to the following concentrations:
Just prior to assay, the RNA polymerase (NS5B) cocktail was prepared in assay buffer to the following specifications:
The assay reaction was performed in a Microfluor™ white “U” bottom plate (Dynatech™ #7105), by successively adding: • 20 μL of test compound cocktail; • 20 μL of substrate cocktail; and • 20 μL of enzyme cocktail (final [NS5B] in assay=10 nM; final [n-dodecyl maltoside] in assay=0.33%; final DMSO in assay=5%).
The reaction was incubated at room temperature for 1.5 hours. STOP solution (20 μL; 0.5 M EDTA, 150 ng/μl tRNA) was added, followed by 30 μl streptavidin coated PVT beads (8 mg/ml in 20 mM Tris-HCl, pH 7.5, 25 mM KCl, 0.025% NaN3). The plate was then shaken for 30 minutes. A solution of CsCl was added (70 μL, 5 M), to bring the CsCl concentration to 1.95 M. The mixture was then allowed to stand for 1 hour. The beads were then counted on a Hewlett Packard TopCount™ instrument using the following protocol: • Data mode: counts per minute • Scintillator: liq/plast • Energy range: low • Efficiency mode: normal • Region: 0-50 • Count delay: 5 minutes • Count time: 1 minute • Expected results: 6000 cpm/well • 200 cpm/well no enzyme control.
Based on the results at ten different concentrations of test compound, standard concentration-% inhibition curves were plotted and analysed to determine IC50's for the compounds of the invention. For some compounds, the IC50 was estimated from two points.

Structure (SMILES) | IC50 [µM]
Cn1cccc1-c1nc2cc(C(=O)NC3(C(=O)Nc4ccc(C=CC(=O)O)cc4)CCCC3)ccc2n1C1CC2CCC1C2 (mixture of isomers) [compound 2016] | 0.5 to 5
O=C(O)C=Cc1ccc(NC(=O)C2(NC(=O)c3ccc4c(c3)nc(-c3ccco3)n4C3CC4CCC3C4)CCCC2)cc1 (mixture of isomers) [compound 2017] | < 0.5
O=C(O)C=Cc1ccc(NC(=O)C2(NC(=O)c3ccc4c(c3)nc(-c3ccccc3)n4C3CC4CCC3C4)CCCC2)cc1 (mixture of isomers) [compound 2018] | 0.5 to 5
O=C(O)C=Cc1ccc(NC(=O)C2(NC(=O)c3ccc4c(c3)nc(-c3cccs3)n4C3CC4CCC3C4)CCCC2)cc1 (mixture of isomers) [compound 2019] | < 0.5
O=C(O)C=Cc1ccc(NC(=O)C2(NC(=O)c3ccc4c(c3)nc(-c3ccccn3)n4C3CC4CCC3C4)CCCC2)cc1 (mixture of isomers) [compound 2020] | < 0.5
O=C(O)C=Cc1ccc(NC(=O)C2(NC(=O)c3ccc4c(c3)nc(-c3ccoc3)n4C3CC4CCC3C4)CCCC2)cc1 (mixture of isomers) [compound 2021] | < 0.5
O=C(O)C=Cc1ccc(NC(=O)C2(NC(=O)c3ccc4c(c3)nc(-c3ccc[nH]3)n4C3CC4CCC3C4)CCCC2)cc1 (mixture of isomers) [compound 2022] | 0.5 to 5
O=C(O)C=Cc1ccc(NC(=O)C2(NC(=O)c3ccc4c(c3)nc(-c3cccc5c3OCO5)n4C3CC4CCC3C4)CCCC2)cc1 (mixture of isomers) [compound 2023] | 0.5 to 5
CC1CCCC(C)C1n1c(-c2cccn2C)nc2cc(C(=O)NC3(C(=O)Nc4ccc(C=CC(=O)O)cc4)CCCC3)ccc21 (mixture of isomers) [compound 2032] | 0.5 to 5
CC1CCCC(C)C1n1c(-c2ccco2)nc2cc(C(=O)NC3(C(=O)Nc4ccc(C=CC(=O)O)cc4)CCCC3)ccc21 (mixture of isomers) [compound 2033] | 0.5 to 5
CC1CCCC(C)C1n1c(-c2ccccc2)nc2cc(C(=O)NC3(C(=O)Nc4ccc(C=CC(=O)O)cc4)CCCC3)ccc21 (mixture of isomers) [compound 2034] | 0.5 to 5
CC1CCCC(C)C1n1c(-c2cccs2)nc2cc(C(=O)NC3(C(=O)Nc4ccc(C=CC(=O)O)cc4)CCCC3)ccc21 (mixture of isomers) [compound 2035] | < 0.5
CC1CCCC(C)C1n1c(-c2ccccn2)nc2cc(C(=O)NC3(C(=O)Nc4ccc(C=CC(=O)O)cc4)CCCC3)ccc21 (mixture of isomers) [compound 2036] | 0.5 to 5
CC1CCCC(C)C1n1c(-c2ccc[nH]2)nc2cc(C(=O)NC3(C(=O)Nc4ccc(C=CC(=O)O)cc4)CCCC3)ccc21 (mixture of isomers) [compound 2038] | 0.5 to 5
C[C@@H]1CCCC[C@H]1n1c(-c2cccn2C)nc2cc(C(=O)NC3(C(=O)Nc4ccc(/C=C/C(=O)O)cc4)CCCC3)ccc21 (racemic) [compound 2040] | 0.5 to 5
C[C@@H]1CCCC[C@H]1n1c(-c2ccco2)nc2cc(C(=O)NC3(C(=O)Nc4ccc(/C=C/C(=O)O)cc4)CCCC3)ccc21 (racemic) [compound 2041] | 0.5 to 5
C[C@@H]1CCCC[C@H]1n1c(-c2ccccc2)nc2cc(C(=O)NC3(C(=O)Nc4ccc(/C=C/C(=O)O)cc4)CCCC3)ccc21 (racemic) [compound 2042] | 0.5 to 5
C[C@@H]1CCCC[C@H]1n1c(-c2ccccn2)nc2cc(C(=O)NC3(C(=O)Nc4ccc(/C=C/C(=O)O)cc4)CCCC3)ccc21 (racemic) [compound 2044] | 0.5 to 5
C[C@@H]1CCCC[C@H]1n1c(-c2ccc[nH]2)nc2cc(C(=O)NC3(C(=O)Nc4ccc(/C=C/C(=O)O)cc4)CCCC3)ccc21 (racemic) [compound 2046] | 0.5 to 5
C[C@@H]1CCCC[C@H]1n1c(-c2cccc3c2OCO3)nc2cc(C(=O)NC3(C(=O)Nc4ccc(/C=C/C(=O)O)cc4)CCCC3)ccc21 (racemic) [compound 2047] | 0.5 to 5
CC(NC(=O)c1ccc2c(c1)nc(-c1ccoc1)n2C1CCCCC1)C(=O)Nc1cccc(C(=O)O)c1 (stereo not drawn) [compound 1001] | 0.5 to 5
CC(NC(=O)c1ccc2c(c1)nc(-c1ccoc1)n2C1CCCCC1)C(=O)Nc1cccc(/C=C/C(=O)O)c1 (stereo not drawn) [compound 1002] | 0.5 to 5
CC(NC(=O)c1ccc2c(c1)nc(-c1ccoc1)n2C1CCCCC1)C(=O)Nc1ccc(CCCC(=O)O)cc1 (stereo not drawn) [compound 1003] | 0.5 to 5
CC(NC(=O)c1ccc2c(c1)nc(-c1ccoc1)n2C1CCCCC1)C(=O)Nc1cc(CC(=O)O)ccc1O (stereo not drawn) [compound 1004] | 0.5 to 5

Structure (SMILES) | IC50 [µM]
O=C(O)/C=C/c1ccc(NC(=O)[C@@H](NC(=O)c2ccc3c(c2)nc(-c2ccoc2)n3C2CCCCC2)c2ccccc2)cc1 [compound 1005] | 0.5 to 5
O=C(O)/C=C/c1ccc(NC(=O)[C@H](NC(=O)c2ccc3c(c2)nc(-c2ccoc2)n3C2CCCCC2)c2ccccc2)cc1 [compound 1006] | 0.5 to 5
CC(NC(=O)c1ccc2c(c1)nc(-c1ccoc1)n2C1CCCCC1)C(=O)Nc1cccc(CC(=O)O)c1 (stereo not drawn) [compound 1007] | 0.5 to 5
CC(NC(=O)c1ccc2c(c1)nc(-c1ccoc1)n2C1CCCCC1)C(=O)Nc1ccc(CC(=O)O)cc1 (stereo not drawn) [compound 1008] | 0.5 to 5
CC(NC(=O)c1ccc2c(c1)nc(-c1ccoc1)n2C1CCCCC1)C(=O)Nc1ccc(C(C)C(=O)O)cc1 (stereo not drawn) [compound 1009] | 0.5 to 5
CC(NC(=O)c1ccc2c(c1)nc(-c1ccoc1)n2C1CCCCC1)C(=O)Nc1ccc(Cl)c(/C=C/C(=O)O)c1 (stereo not drawn) [compound 1010] | 0.5 to 5
CC/C(=C\c1cccc(NC(=O)C(C)NC(=O)c2ccc3c(c2)nc(-c2ccoc2)n3C2CCCCC2)c1)C(=O)O (stereo not drawn) [compound 1011] | 0.5 to 5
CC(NC(=O)c1ccc2c(c1)nc(-c1ccoc1)n2C1CCCCC1)C(=O)Nc1ccccc1-c1ccc(C(=O)O)o1 (stereo not drawn) [compound 1012] | 0.5 to 5
CC[C@H](C)C(NC(=O)c1ccc2c(c1)nc(-c1ccoc1)n2C1CCCCC1)C(=O)Nc1ccc(/C=C/C(=O)O)cc1 (stereo partly drawn) [compound 1013] | 0.5 to 5
O=C(O)/C=C/c1ccc(NC(=O)C(CC2CCCCC2)NC(=O)c2ccc3c(c2)nc(-c2ccoc2)n3C2CCCCC2)cc1 (stereo not drawn) [compound 1014] | 0.5 to 5
O=C(O)/C=C/c1ccc(NC(=O)[C@@H](CCc2ccccc2)NC(=O)c2ccc3c(c2)nc(-c2ccoc2)n3C2CCCCC2)cc1 [compound 1015] | 0.5 to 5
O=C(O)C=Cc1ccc(NC(=O)C(NC(=O)c2ccc3c(c2)nc(-c2ccoc2)n3C2CCCCC2)c2ccccc2)cc1 (stereo not drawn) [compound 1016] | 0.5 to 5
O=C(O)/C=C/c1ccc(NC(=O)C(NC(=O)c2ccc3c(c2)nc(-c2ccoc2)n3C2CCCCC2)C2CCCCC2)cc1 (stereo not drawn) [compound 1017] | 0.5 to 5
O=C(O)/C=C/c1ccc(NC(=O)[C@H](Cc2ccc(-c3ccccc3)cc2)NC(=O)c2ccc3c(c2)nc(-c2ccoc2)n3C2CCCCC2)cc1 [compound 1018] | 5 to 25
O=C(O)/C=C/c1ccc(NC(=O)C(NC(=O)c2ccc3c(c2)nc(-c2ccoc2)n3C2CCCCC2)c2cccs2)cc1 (stereo not drawn) [compound 1019] | 0.5 to 5
CC(NC(=O)c1ccc2c(c1)nc(-c1ccoc1)n2C1CCCCC1)C(=O)Nc1cccc(-c2cccc(O)c2)c1 (stereo not drawn) [compound 1020] | 5 to 25
CC(NC(=O)c1ccc2c(c1)nc(-c1ccoc1)n2C1CCCCC1)C(=O)Nc1cccc(-c2ccc(O)cc2)c1 (stereo not drawn) [compound 1021] | 5 to 25
CC(NC(=O)c1ccc2c(c1)nc(-c1ccoc1)n2C1CCCCC1)C(=O)Nc1cccc(-c2cccc(N)c2)c1 (stereo not drawn) [compound 1022] | 0.5 to 5
C[C@@H](NC(=O)c1ccc2c(c1)nc(-c1ccoc1)n2C1CCCCC1)C(=O)Nc1nc(-c2ccc(OCC(=O)O)cc2)cs1 [compound 1023] | 0.5 to 5
C[C@@H](NC(=O)c1ccc2c(c1)nc(-c1ccoc1)n2C1CCCCC1)C(=O)Nc1ccc(-c2csc(N)n2)cc1 [compound 1024] | 0.5 to 5
C[C@@H](NC(=O)c1ccc2c(c1)nc(-c1ccoc1)n2C1CCCCC1)C(=O)Nc1ccc(OC(C)(C)C(=O)O)cc1 [compound 1025] | 0.5 to 5
Cc1cc(=O)oc2cc(NC(=O)[C@@H](C)NC(=O)c3ccc4c(c3)nc(-c3ccoc3)n4C3CCCCC3)ccc12 [compound 1026] | 0.5 to 5
Cc1oc(-c2ccc(NC(=O)[C@@H](C)NC(=O)c3ccc4c(c3)nc(-c3ccoc3)n4C3CCCCC3)cc2)cc1C(=O)O [compound 1027] | 0.5 to 5
O=C(NC1(C(=O)Nc2ccc3oc(=O)ccc3c2)CCCC1)c1ccc2c(c1)nc(-c1ccoc1)n2C1CCCCC1 [compound 1028] | 0.5 to 5
